Laboratory results as given in PubChem BioAssay AID493208 (National Center for Advancing Translational Sciences (NCATS), 2011).
Among all 44,000 compounds or so, about 340 (0.77%) were called active. Another 5% or so got no clear call; they are omitted. Calls come from the whole dose curve; as a rule, active = well fitted inhibition curve with a large enough effect; inconclusive = small, poorly fitted or top-dose-only effect; inactive = flat fitted curve, though single readings scatter. This is one part of the list.

Assay: Acumen qHTS Assay for Inhibitors of the mTORC1 Signaling Pathway in MEF (Tsc2-/-, p53-/-) Cells: Sytravon;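 note: plate controls were DMSO for no effect and rapamycin for full effect; nearly all actives have a fitted effect of over 50% in size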
Conditions: phospho-rpS6 immunofluorescence/PI, 24 h; series mostly up to 38.3 µM; activity change, negative = inhibition: at the top concentration
Procedure, shortened: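 Read-out: phospho-S6 Alexa-488 intensity over PI intensity per well, scored as % active cells using thresholds from rapamycin (7.5 nM) and DMSO controls. Tsc2-/-, p53-/- MEFs exposed to compound for 24 h; PI cell count recorded as viability.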

Activity change, negative = inhibition, inactive:
COc1c(Cl)cc(C(=O)N(Cc2ccc(C)o2)C2CCS(=O)(=O)C2)cc1Cl (configuration not stated) -0.536%
Cc1oc(-c2cccc(Cl)c2)nc1CN1CCCC(C(=O)N2CCN(c3ccc(F)cc3)CC2)C1 (configuration not stated) -1.74%
CCCNC(=O)C(CC)n1nc(CC)n2c(cc3oc(C)cc32)c1=O (configuration not stated) -3.09%
COc1cccc(C(=O)c2cn(CC(=O)NCCc3ccccc3)c3nc(C)ccc3c2=O)c1 -1.92%
CCOC(=O)N1CCc2c(sc3c2C(=O)NC(c2cc(OC)c(O)c(OC)c2)N3)C1 (configuration not stated) -12.6%
CCCN(CCC)CCCNC(=O)Cn1cc2c(n1)-c1c(oc(C(=O)N3CCCC3)c1C)CC2 1.5%
Cc1ccc(C(=O)c2oc3ccccc3c2NC(=O)COc2ccccc2Cl)cc1 -12.5%
COc1cccc(NC(=O)Cn2c(=O)n(CCc3ccccc3)c(=O)c3c4c(sc32)CN(C(C)=O)CC4)c1 -10.4%
CCOC(=O)c1cc2c(=O)n3ccccc3nc2n(CC2CCCO2)c1=NC(=O)c1ccc(OC)cc1OC (configuration not stated) -1.34%
CCOc1ccc(NC(=O)NCc2ccc3c(c2)CCN3C(C)=O)cc1 0%
Cc1cc(C)n(-c2nc3ccccc3nc2N2CCN(c3cccc(C)c3C)CC2)n1 3.12%
CCOc1ccc(C(=O)Nc2ccc(-c3nc4cc(C(C)C)ccc4o3)cc2)cc1Cl -0.498%
COc1ccc(C2=NN(CC(=O)NCc3ccccc3Cl)C(=O)CC2)cc1 -7.52%
Cc1ccc(CCNC(=O)c2c(C)oc3ncnc(N4CCOCC4)c23)cc1 -10.6%
Fc1cccc(NCc2cccn2-c2nnc(N3CCOCC3)s2)c1 -3.09%
Cc1ccc(NCc2cccn2-c2nnc(N3CCC(C(=O)NCCc4ccccc4)CC3)s2)cc1 -2.62%
COc1cccc(CNC(=O)N2CCC(CN3CCC(C)CC3)CC2)c1 -1.51%
COc1ccc(NC(=O)CSc2nc(-c3ccc(OC)cc3)[nH]c2-c2ccc(F)cc2)cc1 -1.68%
CN(C)c1ccc(CNC(=O)CCC(=O)N2Cc3ccccc3Oc3ncccc32)cc1 -4.87%
COc1ccccc1NC(=O)c1ccccc1NC(=O)c1ccccc1 -7.84%
COc1ccc(-c2c3c(nc4sc(C(=O)Nc5ccc(Cl)cc5)c(N)c24)CC(C)(C)CC3=O)cc1 -13.3%
Cc1ccc(CN(C(=O)COc2ccc(C(C)(C)C)cc2)C2CCS(=O)(=O)C2)o1 (configuration not stated) -3.39%
CCOc1ccccc1NC(=O)CN(CCc1ccccc1)S(=O)(=O)c1ccc(C)cc1 16.3%
Cn1nnc2c(N3CCCCC3)ncnc21 0.671%
COCCc1nn2c(=O)cc(COC(=O)c3cccs3)nc2s1 -2.66%
Clc1ccc(CNc2nc3ccccc3c3nc(-c4cccnc4)nn23)cc1 -9.42%
CCn1ccc2cc(S(=O)(=O)N3CCC(C(=O)NCCc4ccc(SC)cc4)CC3)ccc21 4.9%
CCc1cccc(C)c1NC(=O)CN1C(=O)c2c(c3ccccc3n2C)C1c1ccc(OC)cc1 (configuration not stated) -22%
CCCCN(C)C(=O)CN1C(=O)CCn2nc(-c3cn(C)c4ccccc34)cc21 0.781%
COc1cccc(CCNC(=O)c2c(O)nc3cc(C)ccn3c2=O)c1 -0.0847%
COCCCNC(=O)Nc1cc(C(=O)NCc2ccc(OC)cc2)ccc1N1CCCC1 22.5%
CCc1ccccc1NC(=O)C(NS(=O)(=O)c1ccc2c(c1)CCC(=O)N2)c1ccccc1 (configuration not stated) -0.693%
O=c1cc(-c2ccccc2)n2c(SCc3ccc([N+](=O)[O-])cc3)nnc2[nH]1 0.305%
COC(=O)c1ccccc1NC(=O)c1ccc2c(c1)CCN2S(=O)(=O)c1ccc(C)cc1 -7.44%
CC1=C(C(N)=O)C(c2cccc(F)c2)n2nc(SCc3ccccc3)nc2N1 (configuration not stated) 0.928%
O=C(O)Cn1nc(N2CCN(c3ccc(F)cc3)CC2)ccc1=O -6.05%
COc1ccccc1CNC(=O)c1cc(Sc2cccc(Cl)c2)nc2ccccc12 -22%
COc1cc(OC)c(NC(=O)C2=C(C)C(=O)OC23CCCCC3)cc1Cl 0.337%
CCc1ccc(C(=O)c2cnc3ccc(C)cc3c2S(=O)(=O)c2ccc(OC)cc2)cc1 -8.08%
COc1ccc2cc(CNc3ccc(C)cc3)c(=O)n(CC(=O)Nc3ccc(OC)c(Cl)c3)c2c1 -7.3%
CCCCc1ccc(C(=O)Nc2ccc3nc(N(CC)CC)cc(C)c3c2)cc1 0%
O=C(CCCn1c(=O)c2sccc2n(Cc2ccc(F)cc2Cl)c1=O)NCc1ccc2c(c1)OCO2 2.72%
CCNC(=O)c1cnc2sc(N3CCC(C)CC3)nn2c1=O 0.913%
Cc1c(C(=O)N2CCCC2)oc2c1-c1nn(CC(=O)NCc3cccc(F)c3)cc1CC2 2.14%
Cc1ccc2c(c1)N(C(=O)N1CCC(C(=O)NCCC3=CCCCC3)CC1)CC(C)O2 (configuration not stated) 5.53%
O=C(CCc1nc2cccnc2n1Cc1ccccc1)NCc1cccc(Cl)c1 3.19%
Cc1ccccc1Nc1ncnc2c1c(-c1ccccc1)cn2-c1ccc(F)cc1 6.1%
O=C(Nc1cccc(Cl)c1)c1ccc2nc(Cc3ccccc3)oc2c1 4.53%
OCc1cnc(SCc2cccc(F)c2)n1Cc1ccc(F)cc1 -9.37%
CCCCn1c(CNC(=O)C23CC4CC(CC(C4)C2)C3)nnc1SCC(=O)Nc1ccccc1 -12.7%
CCN(CC)CCCNC(=O)CCc1c(C)n(CC)c2cc(-c3ccccc3OC)nn2c1=O -0.0678%
CCOc1ccc(CCNc2ncnc3onc(-c4ccc(F)cc4)c23)cc1OCC -1.13%
COC(=O)NNC(=O)C1CCC(C)CC1 (configuration not stated) 4.02%
CN1c2ccc(Cl)cc2-c2nc(SCC(=O)Nc3cc(F)ccc3F)ncc2S1(=O)=O -3.18%
Cc1cccc(N2C(=O)CS(=O)(=O)C23C(=O)N(C)c2ccccc23)c1 (configuration not stated) 2.68%
CCc1nc2ccc(C(=O)NCCc3ccc(OC)c(OC)c3)cc2nc1CC -2.92%
CCOc1ccccc1CNC(=O)c1[nH]c2ccccc2c1Sc1ccccc1 -6.57%
O=C(c1ccco1)N1CCN(c2nc3ccc(Cl)cc3s2)CC1 -4.55%
CCn1ccc2cc(S(=O)(=O)N3CCC(C(=O)NCCOC)CC3)ccc21 1.13%
O=S(=O)(c1ccc(-c2cc(C(F)(F)F)on2)s1)N1CCN(c2cccc(Cl)c2)CC1 -8.02%
Cc1nn2c(C(F)(F)F)cc(-c3ccc(OC(C)C)cc3)nc2c1C#N -0.228%
Cc1ccccc1OCC(=O)Nc1ccccc1C(=O)OCc1cc(=O)n2c(C)csc2n1 7.34%
